Data: PubChem BioAssay AID588591 (National Center for Advancing Translational Sciences (NCATS), 2011)
The whole screen tested about 390,000 compounds, of which about 4,700 (1.2%) were called active. This list was built around the results that the source calls inconclusive (neither active nor inactive); the mix of calls is not that of the screen. Calls follow the shape of the dose curve; as a rule, active = well fitted inhibition curve with a large enough effect; inconclusive = small, poorly fitted or top-dose-only effect, or another doubt; inactive = no such curve, though single readings can be large or run the other way. A potency beside an inconclusive call is a rough fit, not a confirmed value.
Potency is read from the fitted curve at half-maximal effect; tags tell the direction and shape of the fitted curve.

What follows are compounds tested against DNA polymerase eta (Homo sapiens) (UniProt Q9Y253) (assay: qHTS for Inhibitors of Polymerase Eta). Details: recombinant Pol eta, fluorescent DNA replication assay; series mostly up to 114 µM.
Sequence of UniProt Q9Y253 (Q9Y253 whole entry, looked up): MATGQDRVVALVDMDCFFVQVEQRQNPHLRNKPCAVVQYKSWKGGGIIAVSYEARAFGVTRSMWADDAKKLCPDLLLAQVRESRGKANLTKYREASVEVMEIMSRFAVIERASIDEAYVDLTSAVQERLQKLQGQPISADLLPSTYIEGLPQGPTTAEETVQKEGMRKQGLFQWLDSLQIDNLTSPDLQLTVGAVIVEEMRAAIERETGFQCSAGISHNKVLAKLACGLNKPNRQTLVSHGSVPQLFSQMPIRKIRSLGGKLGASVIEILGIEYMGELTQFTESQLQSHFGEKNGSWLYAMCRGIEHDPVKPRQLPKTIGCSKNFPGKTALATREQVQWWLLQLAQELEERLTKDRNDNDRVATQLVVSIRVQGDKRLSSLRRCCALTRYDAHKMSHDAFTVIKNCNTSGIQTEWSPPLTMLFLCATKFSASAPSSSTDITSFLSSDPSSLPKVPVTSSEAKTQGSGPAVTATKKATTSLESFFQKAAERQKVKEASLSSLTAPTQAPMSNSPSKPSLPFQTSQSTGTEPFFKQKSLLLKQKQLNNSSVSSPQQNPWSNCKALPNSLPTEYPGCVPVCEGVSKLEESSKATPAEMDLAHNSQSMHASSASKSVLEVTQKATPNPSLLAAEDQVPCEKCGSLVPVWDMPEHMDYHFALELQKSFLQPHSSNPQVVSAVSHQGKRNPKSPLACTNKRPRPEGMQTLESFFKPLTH
Summary of the method: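 Fluorescent replication assay: 50 nM final substrate added after a 15 min room-temperature compound preincubation with 10 nM enzyme. Signal taken at 0 min and again at 10 min.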
`CCOC(=O)c1c(CSc2ccccc2)oc2ccc(O)cc12` was tested, and the Potency was inconclusive: 79.4 µM [inhibitor, partial curve, poor fit].
`CCn1nc(NS(=O)(=O)c2ccc(C)cc2)c2cc3ccccc3nc21` was tested, and the Potency was inconclusive: 79.4 µM [inhibitor, partial curve, poor fit].
With `CCOC(=O)c1ccc(-c2ccc3c(=O)c4ccccc4n(C)c3c2)cc1F` the Potency was inconclusive: 20 µM [inhibitor, partial curve, poor fit].
In the case of `COc1ccc(NCc2ccccc2[N+](=O)[O-])cc1OC`, the Potency is reported as inconclusive: 31.6 µM [inhibitor, single point].
With `COc1ccc(/C=N/Nc2cc(C)nc3ccc(OC)cc23)c(OC)c1` the Potency was inconclusive: 20 µM [inhibitor, full curve, poor fit].
`CCCCc1nc(SCC(=O)N2CCCCC2)c2c(=O)n(C)c(=O)n(C)c2n1` was tested, and the Potency was inconclusive: 44.7 µM [inhibitor, partial curve, poor fit].
In the case of `COc1cc(NC(=O)c2cc3c(=O)n(Cc4ccco4)ccc3nc2C)cc(OC)c1OC`, the Potency is reported as “inactive”.
In the case of `CCC(C)(C)NC(=O)C(c1sccc1C)N(Cc1ccco1)C(=O)c1csnn1` (stereo not given), the Potency is reported as inconclusive: 89.1 µM [inhibitor, partial curve, poor fit].
For `O=C1NC(=S)S/C1=C\c1cccc([N+](=O)[O-])c1`, the Potency was inconclusive: 56.2 µM [inhibitor, partial curve].
In the case of `COc1ccc(CCNC(=O)c2cc(COc3c(F)cccc3F)on2)c(OC)c1`, the Potency is reported as inconclusive: 79.4 µM [inhibitor, partial curve, poor fit].
`Cc1ccc2c(c1)c(=O)c1ccccc1n2CCCC(=O)Nc1ccc(Cl)c(Cl)c1` was tested, and the Potency was “inactive”.
`CCOC(=O)c1ccc(N(CCC2CO2)S(=O)(=O)c2ccc(C)cc2)cc1` (stereo not given) was tested, and the Potency was inconclusive: 79.4 µM [inhibitor, partial curve, poor fit].
With `Cc1ccc(N(C)S(=O)(=O)c2cccc(C(=O)N(C)Cc3cnn(-c4ccccc4)c3)c2)cc1` the Potency was inconclusive: 89.1 µM [inhibitor, partial curve, poor fit].
In the case of `COc1ccc(-c2csc(NC(=S)NC(=O)/C=C/c3ccco3)n2)cc1OC`, the Potency is reported as inconclusive: 39.8 µM [inhibitor, partial curve].
With `CCOc1ccc(NC(=O)CN2C(=O)c3ccccc3Sc3ccc(C(=O)OC)cc32)cc1` the Potency was inconclusive: 100 µM [inhibitor, partial curve, poor fit].
For `O=C(CN1C(=O)NC2(CCCCCC2)C1=O)NCCc1ccc(F)cc1`, the Potency was inconclusive: 100 µM [inhibitor, partial curve, poor fit].
In the case of `Cc1cc(C)c2oc(-c3ccc(C)c(NC(=S)NC(=O)/C=C/c4ccco4)c3)nc2c1`, the Potency is reported as inconclusive: 31.6 µM [inhibitor, single point].
With `CCOC(=O)C1=C(SCC)c2cc3c(n2C1=O)CCCC3` the Potency was inconclusive: 22.4 µM [inhibitor, partial curve, poor fit].
For `CCN(CC)CCNC(=O)c1cc2c(-c3cccc(OC)c3)nn(C)c2s1`, the Potency was “inactive”.
In the case of `COc1ccc(CCNC(=O)CN(c2ccccc2)S(=O)(=O)N(C)C)cc1`, the Potency is reported as “inactive”.
In the case of `Cc1nn(-c2ccccc2)c2sc(C(=O)c3c(N)n(C)c(=O)n(C)c3=O)cc12`, the Potency is reported as inconclusive: 31.6 µM [inhibitor, partial curve, poor fit].
In the case of `Oc1ccc(NCc2ccccc2OCc2ccccc2)cc1`, the Potency is reported as inconclusive: 100 µM [inhibitor, partial curve, poor fit].
For `CCCCn1c(SCC(N)=O)nc2c(sc3ccccc32)c1=O`, the Potency was inconclusive: 22.4 µM [inhibitor, single point].
With `NC(=O)c1ccsc1NC(=O)CS(=O)(=O)c1ccc(Cl)cc1` the Potency was “inactive”.
`CSc1ccc(/C=N/Nc2nc(C)cc(=O)[nH]2)cc1` was tested, and the Potency was inconclusive: 89.1 µM [inhibitor, partial curve].
For `COc1cc(/C=N/Nc2nc(=O)[nH]nc2C)cc([N+](=O)[O-])c1O`, the Potency was “inactive”.
With `CCCCCC(=O)N1CCN(CCN=CC2=C(O)CC(c3cccs3)CC2=O)CC1` (stereo not given) the Potency was inconclusive: 17.8 µM [inhibitor, partial curve, poor fit].
For `O=C(CN1C(=O)COc2ccc(S(=O)(=O)NC3CCCC3)cc21)NCc1ccccc1Cl`, the Potency was “inactive”.
`COc1cc(Nc2nc3ccc(Cl)cc3nc2-n2nc(C)cc2C)cc(OC)c1` was tested, and the Potency was “inactive”.
In the case of `Cc1ccc(Cl)cc1NC(=O)CCn1cnc2ccccc2c1=O`, the Potency is reported as active: 44.7 µM.
For `O=[N+]([O-])c1cc(-c2ccc(/C=N\n3cnnc3)o2)cc([N+](=O)[O-])c1`, the Potency was inconclusive: 79.4 µM [inhibitor, single point].
`O=c1ccc2ccc(O[C@@H]3O[C@H](CO)[C@@H](O)[C@H](O)[C@H]3O)c(O)c2o1` was tested, and the Potency was “inactive”.
For `CCCCNC(=S)N/N=C/c1cc(C)ccc1C`, the Potency was inconclusive: 89.1 µM [inhibitor, partial curve, poor fit].
For `CCOc1cc(C(=O)Nc2ccc(C)cc2O)ccc1OCC(=O)N1CCOCC1`, the Potency was inconclusive: 15.8 µM [inhibitor, full curve, poor fit].
For `CCN1CCN(Cc2ccc(NC(=O)c3ccc(C)c(NC(=O)c4ccc5n[nH]nc5c4)c3)cc2C(F)(F)F)CC1`, the Potency was “inactive”.
With `CCC(C(=O)NCCC(C)C)N(C(=O)Cn1nnc(-c2ccc(C)cc2)n1)c1cccc(O)c1` (stereo not given) the Potency was “inactive”.
With `C/C(=N\NC(=O)c1ccc(NS(=O)(=O)c2cccs2)cc1)c1ccc2ccccc2c1` the Potency was inconclusive: 35.5 µM [inhibitor, partial curve, poor fit].
In the case of `CCc1ccc(NC(=O)c2ccc(Cn3nc(N4CCN(c5ccccc5)CC4)ccc3=O)o2)cc1`, the Potency is reported as active: 20 µM.
In the case of `CCCCNc1nc(N)nc(-c2cc(Cl)ccc2O)n1`, the Potency is reported as inconclusive: 25.1 µM [inhibitor, partial curve, poor fit].
`CN1CCCN(S(=O)(=O)c2ccc(O)c(C(=O)O)c2)CC1` was tested, and the Potency was inconclusive: 15.8 µM [inhibitor, full curve, poor fit].
With `CC(C)COc1ccc(-c2nn(-c3ccccc3)cc2CO)cc1` the Potency was inconclusive: 56.2 µM [inhibitor, full curve, poor fit].
In the case of `Cc1cc(=O)c2cc(C(=O)Nc3ccc(F)cc3)ccc2[nH]1`, the Potency is reported as “inactive”.
In the case of `COc1ccc(C(=O)c2sc3nc(-c4ccccc4)ccc3c2N)cc1OC`, the Potency is reported as inconclusive: 8.91 µM [inhibitor, full curve].
In the case of `O=c1[nH]n2c(=O)c3c([nH]c2c1N=Nc1cccc(C(F)(F)F)c1)CCCC3`, the Potency is reported as inconclusive: 22.4 µM [inhibitor, partial curve, poor fit].
With `COc1cc(CCC(=O)OCC(=O)c2ccc[nH]2)cc(OC)c1OC` the Potency was inconclusive: 20 µM [inhibitor, partial curve, poor fit].
For `COc1ccc(Cl)cc1NC(=O)Cn1nc(C(F)(F)F)c2c1CCCC2`, the Potency was inconclusive: 39.8 µM [inhibitor, partial curve, poor fit].
In the case of `Cc1nn(C)c(C)c1/C=N/N=C1\CCC2C3CCc4cc(O)ccc4C3CCC12C` (stereo not given), the Potency is reported as inconclusive: 2.82 µM [inhibitor, full curve, poor fit].
For `O=C(N/N=C/c1ccc([N+](=O)[O-])cc1)c1cc(-c2ccc3c(c2)OCO3)n[nH]1`, the Potency was “inactive”.
`COc1cc(/C=N/NC(=O)Cn2cnc3ccccc3c2=O)ccc1O` was tested, and the Potency was “inactive”.
In the case of `O=C(/C=C/c1cccs1)Nc1cccnc1`, the Potency is reported as inconclusive: 17.8 µM [inhibitor, partial curve, poor fit].
For `COc1ccc(-c2cc(C(=O)N3CCCCCC3)c3ccccc3n2)c(OC)c1`, the Potency was inconclusive: 79.4 µM [inhibitor, partial curve].
For `CC(c1ccccc1)N1C(=O)c2cccnc2C1=O` (stereo not given), the Potency was “inactive”.
`CCCCc1ccc(NC(=O)Cn2cnc3c2c(=O)n(C)c(=O)n3C)cc1` was tested, and the Potency was “inactive”.
For `CN(c1ccccc1C(=O)Nc1ccc(F)c(F)c1)S(C)(=O)=O`, the Potency was “inactive”.
`Cc1cc(C)c(S(=O)(=O)NCc2ccc3c(c2)cc(C)n3C)c(C)c1` was tested, and the Potency was inconclusive: 79.4 µM [inhibitor, partial curve].
In the case of `Cc1ccc(N2CCN(C(=O)c3nn(C)c4c3CS(=O)(=O)c3ccccc3-4)CC2C)cc1` (stereo not given), the Potency is reported as inconclusive: 44.7 µM [inhibitor, partial curve, poor fit].
With `COc1ccc(N(CC(=O)Nc2cccc(N(C)S(C)(=O)=O)c2)S(=O)(=O)c2ccc(C)cc2)cc1` the Potency was inconclusive: 89.1 µM [inhibitor, partial curve, poor fit].
In the case of `Cc1oc(-c2cccc(Cl)c2)nc1CN1CCC(C(=O)NCc2ccco2)CC1`, the Potency is reported as “inactive”.
For `Cc1c(Cl)cccc1N1CC(c2nc3ccccc3n2Cc2ccccc2F)CC1=O` (stereo not given), the Potency was “inactive”.
In the case of `CCCCN1CC(c2nc3ccccc3n2CCCCOc2c(C)cccc2C)CC1=O` (stereo not given), the Potency is reported as “inactive”.
With `CC(C)(C)c1nnc(NC(=O)CCn2cnc3ccccc3c2=O)s1` the Potency was inconclusive: 100 µM [inhibitor, partial curve, poor fit].
`CCOc1ccc(-n2c(=O)c3c4c(sc3n(Cc3cccc(Cl)c3)c2=O)CCCC4)cc1` was tested, and the Potency was “inactive”.
In the case of `Cc1c(C(=O)N2CCCCC2)c(S(=O)(=O)N2CCN(c3ccccc3F)CC2)c(C)n1C`, the Potency is reported as inconclusive: 89.1 µM [inhibitor, partial curve, poor fit].
With `Cn1c2c(c(=O)[nH]c1=O)C(c1ccc(O)cc1)C1=C(N2)c2ccccc2C1=O` (stereo not given) the Potency was inconclusive: 50.1 µM [inhibitor, partial curve, poor fit].
In the case of `CCC(C)NCCC(=O)Nc1ccc(Cl)c(S(=O)(=O)Nc2ccc(Cl)cc2)c1` (stereo not given), the Potency is reported as inconclusive: 89.1 µM [inhibitor, partial curve, poor fit].
